Measured values published in PubChem BioAssay AID1460 (National Center for Advancing Translational Sciences (NCATS), 2008).
Hit rate of the full screen: of about 270,000 compounds, about 5,800 (2.1%) were called active. The inconclusive results got no clear call from the source; some entries with a clear call stand among them for comparison. Calls come from the whole dose curve; as a rule, active = well fitted inhibition curve with a large enough effect; inconclusive = small, poorly fitted or top-dose-only effect; inactive = flat fitted curve, though single readings scatter. Where the call is inconclusive, the potency comes from a doubtful curve fit.

The compounds below were run against Microtubule-associated protein tau (Homo sapiens) (UniProt P10636) (assay: qHTS for Inhibitors of Tau Fibril Formation, Thioflavin T Binding). Conditions: recombinant tau K18 P301L (four-repeat tau fragment), heparin-induced fibrillization, ThT fluorescence; series mostly up to 57.4 µM.
Sequence of UniProt P10636 (P10636 whole entry, looked up, the tested form may be a part): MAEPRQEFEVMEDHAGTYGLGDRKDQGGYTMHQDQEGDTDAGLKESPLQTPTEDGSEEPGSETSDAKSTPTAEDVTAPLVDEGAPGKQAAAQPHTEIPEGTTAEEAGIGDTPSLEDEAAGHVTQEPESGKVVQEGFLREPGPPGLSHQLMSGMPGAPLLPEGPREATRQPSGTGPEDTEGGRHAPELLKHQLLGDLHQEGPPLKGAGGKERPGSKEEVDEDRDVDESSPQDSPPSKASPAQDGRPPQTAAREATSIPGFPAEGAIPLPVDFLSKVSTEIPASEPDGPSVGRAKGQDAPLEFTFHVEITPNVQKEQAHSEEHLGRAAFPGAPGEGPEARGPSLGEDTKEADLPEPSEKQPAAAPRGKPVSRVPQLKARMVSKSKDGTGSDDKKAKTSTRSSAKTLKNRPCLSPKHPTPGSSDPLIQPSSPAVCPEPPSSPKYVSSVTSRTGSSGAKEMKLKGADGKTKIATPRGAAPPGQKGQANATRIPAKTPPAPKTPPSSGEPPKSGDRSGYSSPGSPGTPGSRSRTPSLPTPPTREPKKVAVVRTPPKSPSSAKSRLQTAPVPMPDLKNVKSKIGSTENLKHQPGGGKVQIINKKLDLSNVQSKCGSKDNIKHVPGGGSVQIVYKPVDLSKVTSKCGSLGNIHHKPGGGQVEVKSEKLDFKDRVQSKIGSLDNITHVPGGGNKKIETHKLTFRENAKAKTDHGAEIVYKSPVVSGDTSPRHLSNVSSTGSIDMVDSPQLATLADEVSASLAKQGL
In short: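 Heparin-induced (20 uM) aggregation of recombinant human K18 P301L tau, 15 uM unlabeled with 0.24 uM labeled, pH 7 acetate buffer, 6 hr at 37 C with compound. Fibrils quantified by 30 uM ThT fluorescence after 1 hr ambient incubation.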
Note: nearly all actives have a fitted effect of over 55% in size.
Potency is the fitted concentration of half-maximal effect; tags give direction and shape of the fitted curve.

Row | SMILES | Potency
1 | CCOc1ncccc1C(=O)N=C1SCCN1C(=O)c1cccnc1OCC | inconclusive: 25.1 µM [inhibitor, single point]
2 | CCCCc1ccc(NC(=O)CSCc2cc(=O)[nH][nH]2)cc1 | inconclusive: 20 µM [inhibitor, partial curve]
3 | Cc1ccc(C)c(NS(=O)(=O)c2ccc3oc(=O)c4ncn(C)c4c3c2)c1 | inactive
4 | Cc1cc(C)c(NC(=O)C[N+](C)(C)CC(O)COc2cccc3ccccc23)c(C)c1 (stereo unspecified) | inconclusive: 39.8 µM [inhibitor, single point]
5 | COc1ccc(NC(=S)N(CCCN2CCCC2)Cc2cccn2Cc2ccc(Cl)cc2)cc1Cl | inconclusive: 28.2 µM [inhibitor, single point]
6 | COC(=O)c1ccc(Cn2c(O)c(N=O)c3ccccc32)o1 | inconclusive: 25.1 µM [inhibitor, partial curve]
7 | CCc1ccc(OCC(=O)N(C)C2CCS(=O)(=O)C2)cc1 (stereo unspecified) | inactive
8 | CCc1ccc(OCc2ccccc2C(=O)Nc2ccc3nc(C)cc(N)c3c2)cc1 | inconclusive: 1.58 µM [activator, single point]
9 | C/C(=N\NC(=O)CSCc1ccccc1Cl)c1cc(O)ccc1O | inconclusive: 28.2 µM [inhibitor, partial curve]
10 | CC(NC(=O)CSc1nc(-c2ccccc2F)nc2cc(=O)[nH]n12)c1nc2ccccc2n1C (stereo unspecified) | inactive
11 | Cc1ccc(NC(=O)c2c(C)oc3ncn(CC(C)C)c(=O)c23)nc1 | inactive
12 | N#CCCS(=O)(=O)c1nnnn1-c1ccccc1 | inconclusive: 7.08 µM [inhibitor, full curve]
13 | CCN(CC)c1ccc2c(Cl)cc(=O)oc2c1 | inconclusive: 17.8 µM [inhibitor, partial curve]
14 | CN(C1CCCCC1)S(=O)(=O)c1cccc(C#N)c1 | inactive
15 | N#C/C(=C\c1c(N2CCC(C(N)=O)CC2)nc2ccccn2c1=O)S(=O)(=O)c1ccc(Cl)cc1 | inconclusive: 20 µM [inhibitor, partial curve, poor fit]
16 | O=C(Nc1nccs1)c1ccc(-c2ccccc2Cl)o1 | inconclusive: 7.94 µM [inhibitor, partial curve]
17 | CCOC(=O)c1c(C)nc2sc(C(N)=O)c(N)c2c1-c1ccc(OC)cc1 | inconclusive: 17.8 µM [inhibitor, partial curve]
18 | CCS(=O)(=O)Nc1c(C(=O)O)[nH]c2ccccc12 | inconclusive: 17.8 µM [inhibitor, partial curve]
19 | C/C(=N\S(=O)(=O)c1ccc(C)cc1)Nc1cc(C(C)C)c(O)cc1C | inactive
20 | CC(C)C(=O)Nc1ncc(Cc2cccc(Cl)c2)s1 | inconclusive: 15.8 µM [inhibitor, single point]
21 | CCn1c(O)c2ccc(C(=O)N=NC(=O)c3cccnc3)cc2c1O | inconclusive: 8.91 µM [inhibitor, partial curve]
22 | CCOC(=O)c1ccc(-c2ccc(C3Nc4ccccc4C(=O)N3O)o2)cc1 (stereo unspecified) | inconclusive: 11.2 µM [inhibitor, partial curve]
23 | C/C(=N\Nc1nc(-c2cc(C)ccc2C)cs1)c1cc2c(ccc3ccccc32)oc1=O | inconclusive: 1.58 µM [inhibitor, full curve]
24 | Cc1ccc2oc(C(Cl)(Cl)Cl)cc(=O)c2c1 | inconclusive: 15.8 µM [inhibitor, partial curve]

Row | SMILES | Potency
25 | COC(=O)c1ccc(-n2c(/C=C/c3cc(OC)c(OC)c(OC)c3)nc3cc(Cl)ccc3c2=O)cc1 | inactive
26 | COc1cc(NC(=O)c2ccc3c(c2)OCO3)ccc1NC(=O)c1ccco1 | inconclusive: 3.16 µM [inhibitor, full curve, poor fit]
27 | C=CCN1C(=O)/C(=C/C=C2/N(CC)c3ccc(S(=O)(=O)N(C)C)cc3N2CC)SC1=S | inconclusive: 3.16 µM [inhibitor, full curve]
28 | Cc1cc([N+](=O)[O-])ccc1NC(=O)Nc1ccccc1F | inconclusive: 12.6 µM [inhibitor, partial curve]
29 | COC(=O)c1cc2c(N)c(C(=O)c3ccc(Cl)cc3)sc2nc1C(OC)OC | inconclusive: 22.4 µM [inhibitor, partial curve]
30 | CCOC(=O)c1cc(-c2csc(COc3ccccc3Cl)n2)on1 | inconclusive: 6.31 µM [inhibitor, full curve]
31 | CCN(C(=O)Cn1c(=O)n(Cc2ccc3c(c2)OCO3)c(=O)c2ccc(C(=O)NC3CCCCC3)cc21)c1cccc(C)c1 | inactive
32 | O=C(Oc1ccc(-c2cnc3ccccc3n2)cc1)c1ccc(Cl)c([N+](=O)[O-])c1 | inconclusive: 2 µM [inhibitor, full curve]
33 | CN1CCN(Cc2nc3ccccc3c(=O)n2Cc2nc(-c3ccc4ccccc4c3)cs2)CC1 | inconclusive: 3.55 µM [inhibitor, full curve]
34 | Cc1ccccc1-c1nc(SCc2cccnc2)c2c(=O)n(C)c(=O)n(C)c2n1 | inactive
35 | COc1ccc(C(=O)NC2CCCCCC2)cc1S(=O)(=O)N1CCCc2ccccc21 | inactive
36 | CCN(CC)c1ccc(/C=C(/C#N)c2nc3ccc(C)cc3[nH]2)c(OC(C)C)c1 | inconclusive: 8.91 µM [inhibitor, partial curve]
37 | O=C1C(Cl)=C(N2CCCCC2)C(=O)C(Cl)=C1c1cnc(N2CCCCC2)s1 | active: 15.8 µM
38 | C/C(=N\NC(=O)COc1ccccc1-c1ccccc1)c1ccccn1 | inactive
39 | COc1cc(/C=N/Nc2nncn2N)ccc1OCc1c(C)no[n+]1[O-] | inconclusive: 12.6 µM [inhibitor, partial curve]
40 | CCCC(=O)Nc1ccccc1C(=O)OCc1cc(=O)n2nc(C(C)C)sc2n1 | inactive
41 | Cc1ccc(C(C(=O)NC2CCCCC2)N(CCC(C)C)C(=O)CNC(=O)c2ccco2)o1 (stereo unspecified) | inconclusive: 39.8 µM [inhibitor, single point]
42 | COc1ccc(OCc2ccc(-c3nc(C#N)c(NCc4cccnc4)o3)o2)cc1 | inconclusive: 8.91 µM [inhibitor, partial curve, poor fit]
43 | N#Cc1cnn2c3c(cnc12)C(=O)N1CCc2ccccc2C1C3 (stereo unspecified) | inactive
44 | COc1cc(NC(=O)C23CC4CC(C2)CC(n2cnc([N+](=O)[O-])n2)(C4)C3)cc(OC)c1 | inconclusive: 39.8 µM [inhibitor, single point]
45 | CCCc1ccc(OC(C)c2nc(-c3ccc(-n4cccc4)cc3)no2)cc1 (stereo unspecified) | inconclusive: 7.08 µM [inhibitor, partial curve, poor fit]
46 | O=C(CCNS(=O)(=O)c1ccc2c(c1)CCN2C(=O)C1CC1)N1CCN(c2cccc(C(F)(F)F)c2)CC1 | inconclusive: 14.1 µM [inhibitor, partial curve]
47 | Cc1cc(OCC(=O)N2CCCC2)cc(C)c1Cl | inactive
48 | O=C(c1cc2sccc2n1Cc1ccc(F)cc1)N1CCc2ccccc21 | inconclusive: 44.7 µM [inhibitor, single point]

Row | SMILES | Potency
49 | Cc1ccc(OCCSc2nc3ccc(NC(=O)c4ccco4)cc3s2)cc1 | inconclusive: 0.562 µM [inhibitor, full curve]
50 | O=C1CC(=O)Nc2cc(S(=O)(=O)Nc3ccc(F)cc3Cl)ccc2N1 | inactive
51 | O=C(CCNC(=O)c1ccccc1)Oc1ccc([N+](=O)[O-])cc1 | inconclusive: 20 µM [inhibitor, single point]
52 | COC(=O)c1sccc1NC(=S)Nc1cc(C)ccc1OC | inactive
53 | CCNC(=S)Nc1ccc(OCC)cc1 | inactive
54 | CC(=O)Nc1ccc(NC(=O)C(NS(=O)(=O)c2ccc(Br)s2)c2ccccc2)cc1 (stereo unspecified) | inactive
55 | O=C(NC1CCCC1)c1nc2c(nnn2Cc2ccccc2Cl)c(=O)[nH]1 | inactive
56 | CCCC(=O)Nc1cc(-c2nnc3c4ccccc4c(C)nn23)ccc1C | inactive
57 | C=CCn1c(C(CCCC)CC(O)COCCC)n[nH]c1=S (stereo unspecified) | inactive
58 | O=C(O)c1cccc(COc2ccc(CO)cc2Cl)c1 | inconclusive: 31.6 µM [inhibitor, partial curve, poor fit]
59 | CSC1=N/C(=C\c2ccc(F)cc2)C(=O)S1 | inconclusive: 20 µM [inhibitor, partial curve]
60 | CC(C)=CC1C=C(C)C(C)C2C(=O)NNC(=O)C12 (stereo unspecified) | inactive
61 | CN/N=C(\Cc1nc2ccccc2[nH]1)c1ccc([N+](=O)[O-])cc1 | active: 12.6 µM
62 | COc1ccc(C)cc1NC(=S)NNC(=O)c1ccccc1Cl | inconclusive: 15.8 µM [inhibitor, partial curve, poor fit]
63 | Cc1cc(=O)n(Cc2c(F)cccc2Cl)c2c1c(C)nn2C | inconclusive: 25.1 µM [inhibitor, single point]
64 | O=C(CSc1n[nH]c(=O)n1-c1cccnc1)N1CCOCC1 | inactive
65 | CCCCOc1cccc(-c2cc(C(=O)NNC(=S)NCC)c3ccccc3n2)c1 | inconclusive: 39.8 µM [inhibitor, single point]
66 | Cc1ccc(-n2c(=O)c3c(cnn3C)n(CC(=O)Nc3cccc(C)c3)c2=O)cc1 | inactive
67 | Cc1cc(C)n(-c2ccc(C(F)(F)F)cc2[N+](=O)[O-])n1 | inactive
68 | O=C(COc1ccccc1Cl)N(Cc1cccc(F)c1)C1CCS(=O)(=O)C1 (stereo unspecified) | inactive
69 | COc1ccc2nc(C)cc(Nc3ccc(N4CCOCC4)cc3)c2c1 | inconclusive: 14.1 µM [inhibitor, partial curve]
70 | O=C(/C=C/c1ccc(Cl)cc1)N1CCN(c2ccccc2[N+](=O)[O-])CC1 | inconclusive: 14.1 µM [inhibitor, partial curve]
71 | O=C1c2ccccc2CCCC12N=NCC2c1cccc2ccccc12 (stereo unspecified) | inconclusive: 39.8 µM [inhibitor, single point]
